# Experimental data as given in PubChem BioAssay AID1347073 (National Center for Advancing Translational Sciences (NCATS), 2019).
# Among all 45,000 compounds or so, about 200 (0.44%) were called active. Roughly 7% stayed inconclusive and do not appear here. Calls follow the shape of the dose curve; as a rule, active = well fitted activation curve with a large enough effect; inconclusive = small, poorly fitted or top-dose-only effect; inactive = no such curve, though single readings can be large or run the other way. Some of the results follow.
# Assay: qHTS of TDP-43 Inhibitors: NCGC Sytravon Library Screen; also: 0% is about no effect; nearly all actives have a fitted effect of over 55% in size
# Conditions: yeast TDP-43 toxicity rescue, BacTiter-Glo growth, 24 h; series mostly up to 46.1 µM; growth rescue (activation): at the top concentration
# Outline: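 TDP-43-expressing yeast, pregrown in raffinose, seeded at OD600 0.02 in galactose medium with compound for 24 hr at 30 deg C. Growth read by BacTiter-Glo luminescence, so rescue of toxicity appears as activation.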
row,Compound,growth rescue (activation)
1,Cn1ccc(C(=O)NC(=S)N2CCSCC2)n1,inactive: -0.738%
2,O=C(c1ccc(-c2nc3ccccc3s2)s1)N1CCOCC1,inactive: -2.91%
3,Cc1ccccc1NS(=O)(=O)c1ccc(C(=O)N2CCN(c3ccccn3)CC2)cc1,inactive: 2.04%
4,CCOC(=O)CSc1nc(C)cc2c1C(=O)OC2,inactive: 10.9%
5,CCOC(=O)C1(C)CCCN(C(=O)c2ccccc2C(F)(F)F)C1 (stereo unspecified),inactive: 5.74%
6,COc1ccccc1C1(CCN=Cc2ccc(N(C)C)cc2)CCOC(C)(C)C1 (stereo unspecified),inactive: -21.7%
7,CC1CCN(S(=O)(=O)c2ccc3c(c2)CCN3C(=O)Nc2cccc(Br)c2)CC1,inactive: -9.71%
8,CCC(=O)c1ccc(OCC(=O)Nc2nc(C)cs2)cc1,inactive: 42.3%
9,COc1ccc(C(=S)N2CCOCC2)cc1OS(=O)(=O)c1ccccc1[N+](=O)[O-],inactive: 2.41%
10,CCOc1ccccc1Nc1ccnc2cc(Cl)ccc12,inactive: -13.2%
11,CC(=O)Nc1cccc(C(=O)N/N=C/c2cccc(C)n2)c1,inactive: -3.3%
12,COc1ccccc1CNc1ccc(Br)cn1,inactive: -0.94%
13,Cc1ccc(C)c(NC(=O)COC(=O)c2ccc[n+]([O-])c2)c1,inactive: 13.2%
14,O=C(NCc1cnc2ccccn12)C1CCC(=O)N(Cc2ccccc2F)C1 (stereo unspecified),inactive: 15.8%
15,COC(=O)c1c(C)[nH]c(C(=O)C(C)OC(=O)C2=NNC(=O)CC2)c1C (stereo unspecified),inactive: 25.3%
16,CC(=O)Oc1ccc(C(=O)Nc2ccc(S(=O)(=O)NCC3CCCO3)cc2)cc1 (stereo unspecified),inactive: 18.1%
17,CN1C(=O)c2cccc3c(S(=O)(=O)Nc4ccccc4F)ccc1c23,inactive: 9.64%
18,Clc1ccc(Nc2c(-c3cccs3)nc3ccc(Cl)cn23)cc1,inactive: -4.91%
19,COC(=O)Cc1cc(=O)[nH]c(/N=C(\N)Nc2ccc(C)cc2C)n1,inactive: 6.61%

row,Compound,growth rescue (activation)
1,Cc1ccc(NC(=S)N2CCOCC2)cc1,inactive: 11.7%
2,COc1ccc(C(=O)N/N=C/c2ccc(OC(=O)c3cccc4ccccc34)c([N+](=O)[O-])c2)cc1,inactive: 15.9%
3,CC(=O)NC1C(=O)N=C(SCC(=O)Nc2ccc(C(F)(F)F)cc2Cl)NC1=O (stereo unspecified),inactive: -11.4%
4,CC(=O)Nc1ccccc1OCc1cnc(Cl)s1,inactive: 4.43%
5,COc1ccc(OC)c(C(O)c2ncc(-c3ccccc3Cl)[nH]2)c1 (stereo unspecified),inactive: 5.59%
6,O=C1C(Cl)=C(NS(=O)(=O)c2ccc([N+](=O)[O-])cc2)C(=O)c2ccccc21,inactive: 1.59%
7,C=CCNC(=O)CSc1nnc(-c2ccccc2Br)n1-c1cccc(C(F)(F)F)c1,inactive: 10.2%
8,Cc1ccc(C(=O)NCC(=O)OCC(=O)N2CCCc3ccccc32)cc1,inactive: 14.1%
9,COc1ccc(C(=O)c2c(C)oc3ccc(O)cc23)c(OC)c1,inactive: 9.31%
10,CCCn1nnnc1NCc1cccc(Cl)c1,inactive: 11.8%
11,COc1ccc(C(NC(=O)C2CCN(CCOc3ccccc3)CC2)c2ccccn2)cc1 (stereo unspecified),inactive: 1.98%
12,OCc1nc2ccc(Cl)cc2[nH]1,inactive: 26.2%
13,CN(C)CCNc1ccc(-c2nn(C)c(=O)c3ccccc23)cc1[N+](=O)[O-],inactive: -3.85%
14,COc1ccccc1C(NC(=O)C1CCN(CCOc2ccc(Cl)cc2Cl)CC1)c1ccccn1 (stereo unspecified),inactive: -2.34%
15,COc1ccccc1NC(=O)N(Cc1ccco1)Cc1cc2cccc(C)c2[nH]c1=O,inactive: -32.8%
16,CN(C(=O)CC1C(=O)NCCN1Cc1ccc(F)cc1)C1CCOCC1 (stereo unspecified),inactive: -8.59%
17,O=C(COc1ccccc1C(=O)O)Nc1ccc(SC(F)F)cc1,inactive: -10.4%
18,O=C(NCCN1CCNC1=O)C1CCC(=O)N(CCc2ccccc2)C1 (stereo unspecified),inactive: 11.3%
19,C=CCOc1ccc(CNCCO)cc1OCC,inactive: -15.1%

row,Compound,growth rescue (activation)
1,CC1CCC(NS(=O)(=O)c2ccc(Cl)s2)CC1 (stereo unspecified),inactive: 19.8%
2,C[C@H](NC(=O)c1ccccc1Cl)C(=O)NCCc1ccc(S(N)(=O)=O)cc1,inactive: -3.68%
3,O=C(COc1ccc(Br)cc1)Nc1ccccc1C(=O)N1CCOCC1,inactive: 4.42%
4,O=C(NCCCn1ccnc1)C1CCCN(S(=O)(=O)c2ccc(F)cc2)C1 (stereo unspecified),inactive: 6.57%
5,O=S(=O)(c1ccc2ccccc2c1)N1CCOCC1,inactive: 5.47%
6,CC(C)(C)Cc1nnc(NC(=O)CN2C(=O)c3ccccc3C2=O)s1,inactive: 5.13%
7,Cc1cccc(CC(=O)Nc2ccon2)c1,inactive: 9.64%
8,Cc1cc(F)ccc1C(O)c1ncc(-c2ccc(Cl)cc2)[nH]1 (stereo unspecified),inactive: 11.2%
9,COc1ccc(NC(=S)NC2CC3CCC2C3)c(OC)c1 (stereo unspecified),inactive: -6.79%
10,CC(=O)c1c(C)[nH]c(C(=O)COC(=O)c2cccnc2Cl)c1C,inactive: 22.2%
11,Cc1ccc(-c2csc(NC(=O)N3CCOCC3)n2)cc1,inactive: 25.2%
12,CC(Sc1nnc(-c2ccccc2)c(-c2ccccc2)n1)C(=O)N1CCc2ccccc21 (stereo unspecified),inactive: 12.1%
13,Cn1c(SCC(N)=O)nnc1-c1cnccn1,inactive: -1.96%
14,Cn1c(S(=O)(=O)O)nc2ccccc21,inactive: -1.82%
15,CCN(CC)C(C(=O)Nc1ccc2c(c1)OCO2)c1ccccc1 (stereo unspecified),inactive: -6.22%
16,O=C(O)C1CCN(C(=O)c2cccc3ccccc23)CC1,inactive: 5.59%
17,Cc1cc(Cl)ccc1OCC(=O)NN1C(=O)C2C3C=CC(C3)C2C1=O (stereo unspecified),inactive: 2.51%
18,CCOC(=O)c1ccc(NC(=O)c2c(NC(=O)CCC(=O)O)sc3c2CCCCC3)cc1,inactive: -3.66%
